From the RNAGym collection of RNA variant scans (doi:10.7554/elife.90254)
Read counts are not given, so values of variants with three or more changes are uncertain.

B1: LINE1-mini (parent)
chain: GGCAGAGCUCAACACAGCGUGGCAAAGUGGCUGUGGCUAGACUGCC

Variants of: B1
Test: self-cleavage, relative activity (ratio to wild type); higher = more cleavage; in vitro, sequencing; the parent is a self-cleaving ribozyme

Row | Variant | self-cleavage
1 | GGCAGAGCUCAACACAGCGUGUCAAAGUGGGUUUGGCUAGACUGCC [G22U C31G G33U] | 0.07
2 | GGCAGAGCUCAACACAGCGUGUCGAAGUGGCUGUGGCUACACUGCC [G22U A24G G40C] | 0.05
3 | GGCAGAGCUCAACACAGCGUGUCAAAGUGGCUGUGGCUGGAAUGCC [G22U A39G C42A] | 0.14
4 | GGCAGAGCUCAACACAGCGUGUCAAACUAGCUGUGGCUAGACUGCC [G22U G27C G29A] | 2.07
5 | GGCAGAGCUCAACACAGCGUGUCAAUGCGGCUGUGGCUAGACUGCA [G22U A26U U28C C46A] | 0.08
6 | GGCAGAGCUCAACACAGCGUGCCAAAGUGGCUGUGGAUAAACUUCC [G22C C37A G40A G44U] | 0.06
7 | GGCAGAGCUCAACACAGCGUGUCAUAGUGGUUGUGGCUAGACUGCC [G22U A25U C31U] | 0.5
8 | GGCAGAGCUCAACACAGCGUGUCAUAGUAGCUGUGGUUAGACUGCC [G22U A25U G29A C37U] | 0.04
9 | GGCAGAGCUCAACACAGCGUGUCAAAGUGCCUGUGGCUUGACUGCC [G22U G30C A39U] | 0.7
10 | GGCAGAGCUCAACACAGCGUGCCAAAGUGGCGGUGGCUCGACUACC [G22C U32G A39C G44A] | 0.08
11 | GGCAGAGCUCAACACAGCGUGCCAAAGUGCCUUUGGCUAGACUGCC [G22C G30C G33U] | 0.05
12 | GGCAGAGCUCAACACAGCGUGCUAAAGUGGCUGUAGCUAGACUGUC [G22C C23U G35A C45U] | 0.26
13 | GGCAGAGCUCAACACAGCGUGUCUAAGUGGCUGUGGCGAGCCUGCC [G22U A24U U38G A41C] | 0.04
14 | GGCAGAGCUCAACACAGCGUGCCAAAGUGGUUGCGGCUAGACUGCU [G22C C31U U34C C46U] | 0.03
15 | GGCAGAGCUCAACACAGCGUGUCAACGUGGCUGUUGCUAGACUGAC [G22U A26C G35U C45A] | 0.15
16 | GGCAGAGCUCAACACAGCGUGUAAAAGUGGCUGUGGCUAAACGGCC [G22U C23A G40A U43G] | 0.04
17 | GGCAGAGCUCAACACAGCGUGUCAAAGUGGCUUUGGCUAGUUAGCC [G22U G33U A41U C42U U43A] | 0.02
18 | GGCAGAGCUCAACACAGCGUGUCAAAGUGGUUGUAGCUAGACUGCC [G22U C31U G35A] | 0.03
19 | GGCAGAGCUCAACACAGCGUGUUAAAGUGGCUGUGGCUACACUGCC [G22U C23U G40C] | 0.13

Row | Variant | self-cleavage
20 | GGCAGAGCUCAACACAGCGUGCCAAAGUUGCUGCGGCUAGACUGCC [G22C G29U U34C] | 0.29
21 | GGCAGAGCUCAACACAGCGUGCCAAAGUGGCUGUGCGUAGACUGCG [G22C G36C C37G C46G] | 0.13
22 | GGCAGAGCUCAACACAGCGUGUCAAAUUGGCUGUGCCUAGACUUCC [G22U G27U G36C G44U] | 0.62
23 | GGCAGAGCUCAACACAGCGUGCCAAAGUGGGUGUUGCAAGACUGCC [G22C C31G G35U U38A] | 0.03
24 | GGCAGAGCUCAACACAGCGUGUCAGCGUGGCUGUGGCUACACUGCC [G22U A25G A26C G40C] | 0.05
25 | GGCAGAGCUCAACACAGCGUGUCAAAGUGGCUGUGGCUAGAUUGUC [G22U C42U C45U] | 0.6
26 | GGCAGAGCUCAACACAGCGUGUCAACGUGGUUGUUGCUAGACUGCC [G22U A26C C31U G35U] | 0.03
27 | GGCAGAGCUCAACACAGCGUGUCAAAGUAGCUGUGUCUCGACUGCC [G22U G29A G36U A39C] | 0.26
28 | GGCAGAGCUCAACACAGCGUGUAAAAGUGGCUGUGGAUAGACUGCC [G22U C23A C37A] | 0.17
29 | GGCAGAGCUCAACACAGCGUGCCAAAGUUGCUGUGUCUAGACUGCC [G22C G29U G36U] | 0.07
30 | GGCAGAGCUCAACACAGCGUGUCAAAGUGGCUGUGAAUAGACUGCA [G22U G36A C37A C46A] | 0.05
31 | GGCAGAGCUCAACACAGCGUGUUAAAGUAGCUGUGGCUAGACUGCC [G22U C23U G29A] | 2.83
32 | GGCAGAGCUCAACACAGCGUGUCAAACUAGCAGUGGCUAGACUGCC [G22U G27C G29A U32A] | 0.26
33 | GGCAGAGCUCAACACAGCGUGCCAAAGUGGCUGUGGCUAGAGUUCC [G22C C42G G44U] | 0.03
34 | GGCAGAGCUCAACACAGCGUGCCAAAGUGGAGGUGGCUAGACUGAU [G22C C31A U32G C45A C46U] | 0.01
35 | GGCAGAGCUCAACACAGCGUGUCCAAGUGGCUGUGGCGAGACUGCC [G22U A24C U38G] | 0.02
36 | GGCAGAGCUCAACACAGCGUGCCAAAAUGGCUGUGGCUCGACCGCC [G22C G27A A39C U43C] | 0.08
37 | GGCAGAGCUCAACACAGCGUGUCAAAGUGGCUAUGGCUAGACAACC [G22U G33A U43A G44A] | 0.04
38 | GGCAGAGCUCAACACAGCGUGCCAAAGUAGCUGAGGAUAGACUGCC [G22C G29A U34A C37A] | 0.02

Row | Variant | self-cleavage
39 | GGCAGAGCUCAACACAGCGUGUCAACGUGGCCGUGGCUAGACUGCC [G22U A26C U32C] | 0.16
40 | GGCAGAGCUCAACACAGCGUGCCAAAGUGGAUAUGGCUAGACUGCC [G22C C31A G33A] | 0.06
41 | GGCAGAGCUCAACACAGCGUGUCGAAGUGUCUGUGGCUAGACUCCC [G22U A24G G30U G44C] | 0.19
42 | GGCAGAGCUCAACACAGCGUGCCAAAAUGGCUGUGACUAGACUGCC [G22C G27A G36A] | 0.1
43 | GGCAGAGCUCAACACAGCGUGCCAAACUGGCUGUGGCUAGACUGUC [G22C G27C C45U] | 0.09
44 | GGCAGAGCUCAACACAGCGUGUCUAAGUGGCUGUGGCUUGACUGCC [G22U A24U A39U] | 0.25
45 | GGCAGAGCUCAACACAGCGUGCCAAAGUGGUUUUGGCUAGACUGCC [G22C C31U G33U] | 0.04
46 | GGCAGAGCUCAACACAGCGUGCCAAAGUGCCUGUGGCCAGACUGCC [G22C G30C U38C] | 0.14
47 | GGCAGAGCUCAACACAGCGUGCCAAAGUGGCCGUGGCUAGACUGUC [G22C U32C C45U] | 0.05
48 | GGCAGAGCUCAACACAGCGUGUCAAAGUGGCUAUGGCUGGACUGCC [G22U G33A A39G] | 0.19
49 | GGCAGAGCUCAACACAGCGUGUCAAAGUGGCUCUGGCUCGACUGCC [G22U G33C A39C] | 0.12
50 | GGCAGAGCUCAACACAGCGUGUCAAAGUGACUGUGGCUAGUCUGCC [G22U G30A A41U] | 1.24
51 | GGCAGAGCUCAACACAGCGUGUCAUAGUGGCCGUGGCUAGACUGCA [G22U A25U U32C C46A] | 0.05
52 | GGCAGAGCUCAACACAGCGUGCCAAAGUGGCCGUGGGUAGACUGCC [G22C U32C C37G] | 0.01
53 | GGCAGAGCUCAACACAGCGUGUGAAAGUGGGUGUGGCUAGACUGCC [G22U C23G C31G] | 0.13
54 | GGCAGAGCUCAACACAGCGUGUCAAAGUGGCUGUGGCUCUACUGCC [G22U A39C G40U] | 0.11
55 | GGCAGAGCUCAACACAGCGUGCCAAAGUGGAUGUGGCUAGUCUGCC [G22C C31A A41U] | 0.07
56 | GGCAGAGCUCAACACAGCGUGUCACAUUGGCUGUGGCUAGACUGCC [G22U A25C G27U] | 0.1
